Source: publication PMC4242493
The other results are listed elsewhere or left out. The list includes weakly bound sequences.

Target: MaxL homodimer (UniProt P61244)
Test: universal protein-binding microarray (PBM)
Conditions: PBS-based mixture, 10 nM His-tagged protein dimer, 2% milk, 200 ng/uL BSA, 50 ng/uL salmon testes DNA, 0.02% TX-100; detection with Alexa 488 anti-His …; high values mean tight binding; most listed sequences are background and not binding sites; double strand, one strand shown

Chain of UniProt P61244 (P61244 whole entry): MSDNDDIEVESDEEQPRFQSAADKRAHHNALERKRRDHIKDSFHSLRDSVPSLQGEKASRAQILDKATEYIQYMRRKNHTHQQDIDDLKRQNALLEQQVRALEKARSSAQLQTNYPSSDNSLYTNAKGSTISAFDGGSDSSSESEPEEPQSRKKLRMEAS

| Sequence | binding signal (normalized occupancy) |
| --- | --- |
| ATGCTTTG | 0.0774 |
| GCCATATA | 0.0818 |
| ATACACAG | 0.081 |
| AGAGGAGG | 0.0706 |
| AAAATCAG | 0.0774 |
| CTGTCTTC | 0.0686 |
| ACCTGCGC | 0.0702 |
| AGTCCAAC | 0.0682 |
| TACACGTA | 0.083 |
| ATACTGCA | 0.0761 |
| CCGGAGTC | 0.0696 |
| CGGTGACC | 0.0718 |
| ATGACAGC | 0.0803 |
| ACTAAGTG | 0.0769 |
| CCTCGAGC | 0.0705 |
| ACGCCTTA | 0.077 |
| ACGGTTCA | 0.0728 |
| CCCGGCCG | 0.0667 |
| ATGTGCCG | 0.0876 |
| GGCGAAAC | 0.0689 |
| GGGCTACC | 0.0716 |
| CTGAGAGC | 0.0662 |
| ACGCCTAA | 0.0786 |
| ACATGTCT | 0.0899 |

| Sequence | binding signal (normalized occupancy) |
| --- | --- |
| TAAAGGCA | 0.0784 |
| TAAGTGCA | 0.0778 |
| ATACTCCG | 0.0779 |
| CAACGTGA | 0.118 |
| TCGGGCAA | 0.0699 |
| ACAAAGCG | 0.0689 |
| ACTTTGTC | 0.0738 |
| ATACCGCG | 0.0817 |
| CACCAGTC | 0.0703 |
| CTATACGA | 0.0719 |
| CCCGCCCA | 0.0875 |
| ACACATGG | 0.159 |
| CATCGGCC | 0.0695 |
| AAGCCTAT | 0.0749 |
| ACCCACCT | 0.0795 |
| GGCCCCAA | 0.0712 |
| AGAAGTAT | 0.0738 |
| ACTCCGGG | 0.072 |
| AACCAAAA | 0.0776 |
| GCTGGAGA | 0.0725 |
| GAGTCATA | 0.0794 |
| AGTCAAAA | 0.0706 |
| GATTCCGC | 0.0686 |
| AAACCAGA | 0.0735 |

| Sequence | binding signal (normalized occupancy) |
| --- | --- |
| ATGACGTC | 0.0781 |
| AACATTTG | 0.0729 |
| CAAGCTAC | 0.072 |
| GTGAGAGA | 0.0828 |
| CGTGACTC | 0.0784 |
| GACCCAAC | 0.0757 |
| ACCGACCA | 0.0782 |
| TCACGGGA | 0.0777 |
| ATTTTAGC | 0.0764 |
| CTCCAAGC | 0.0741 |
| AAGTATCC | 0.0755 |
| AGCGTCAT | 0.0737 |
| CAACTGTA | 0.0722 |
| ATGTTCGG | 0.0775 |
| ATGGTCCG | 0.0771 |
| AGCTTCGG | 0.0712 |
| CTTCGTTA | 0.0702 |
| ACCTTGCT | 0.0757 |
| AGATCTAA | 0.0787 |
| AGTCCACG | 0.087 |
| GAGAACCA | 0.0818 |
| AATATACA | 0.0893 |
| AGTCCGGG | 0.0654 |
| CGTTAAGC | 0.067 |

| Sequence | binding signal (normalized occupancy) |
| --- | --- |
| GATCAAGA | 0.074 |
| GCCGGTAC | 0.0732 |
| ATCATGAT | 0.0928 |
| ATTCTGGG | 0.0769 |
| CTCTTCAG | 0.0689 |
| CAGGGGGG | 0.0807 |
| CATGTTGC | 0.0999 |
| CCACTAAA | 0.0745 |
| CAATATTC | 0.0792 |
| CAGACAGC | 0.0708 |
| CCTTTCCA | 0.0814 |
| GTTTCCGA | 0.0706 |
| CTTCACGC | 0.0773 |
| CATTGCCC | 0.0797 |
| GGGAGTAC | 0.0781 |
| CTGCGAGA | 0.0669 |
| GAGGGTAA | 0.0789 |
| AGTGGCAG | 0.0755 |
| CCAGAAGA | 0.0738 |
| ACCGATAT | 0.0735 |
| CTCTCCCA | 0.0731 |
| CAACCAGG | 0.0675 |
